{
  "source": "PubChem BioAssay AID1963576",
  "about": "(National Center for Advancing Translational Sciences (NCATS), 2024)",
  "note": "Screen size: about 46,000 compounds; about 60 (0.1%) were called active. Not shown: some 3% with an inconclusive outcome. Calls follow the shape of the dose curve; as a rule, active = well fitted inhibition curve with a large enough effect; inconclusive = small, poorly fitted or top-dose-only effect; inactive = no such curve, though single readings can be large or run the other way. The list shows a part of the results.",
  "data": [
    {"assay": "Primary qHTS assay for Inhibitors of ovarian cancer metastasis using an organotypic tumor microenvironment (TME) model; also: nearly all actives have a fitted effect of over 65% in size;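 as to activity change, negative = inhibition: plate controls were DMSO wells for no effect and tomatine positive control wells for full effect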.", "settings": "SKOV3ip1-GFP adhesion/invasion on 3D omental model, fluorescence; series mostly up to 45.8 µM; activity change, negative = inhibition: at the top concentration", "in_short": "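Adhesion/invasion was scored as fixed GFP-labeled SKOV3ip1 cell counts (488/509 nm), normalized to DMSO and tomatine controls. Cancer cells in serum-free medium, with four compound doses (0.36-46 umol/L), sat 2 hr at RT then 16 hr at 37 C on a 48 hr fibroblast/mesothelial/ECM culture.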", "values": [
      {"compound": "NC(=O)C1CCN(C(=O)c2cccc(NC(=O)c3nsc4ccccc34)c2)CC1", "activity change, negative = inhibition": "inactive: 3.9%"},
      {"compound": "Cc1noc(-c2ccc(-c3noc(-c4cccc(F)c4)n3)cc2)n1", "activity change, negative = inhibition": "inactive: 5.72%"},
      {"compound": "O=C(C1COc2ccccc2O1)N1CCN(c2nc3ccc(F)cc3s2)CC1", "note": "(stereo not drawn)", "activity change, negative = inhibition": "inactive: -1.51%"},
      {"compound": "COc1ccc(N2Cc3cccc(C(=O)Nc4cc(C)cc(C)c4)c3C2=O)cc1", "outcome": "inactive"},
      {"compound": "CSC1=NC2(CCN(C(=O)NC3CCCCC3)CC2)N=C1c1ccc(C)cc1", "activity change, negative = inhibition": "inactive: 5.72%"},
      {"compound": "O=C(C1COc2ccccc2O1)N(Cc1cccnc1)c1nc2ccc(Cl)cc2s1", "note": "(stereo not drawn)", "activity change, negative = inhibition": "inactive: 12.5%"},
      {"compound": "Cc1ccc(C#N)c(=O)n1CC(=O)Nc1ccccc1C(F)(F)F", "activity change, negative = inhibition": "inactive: -7.42%"},
      {"compound": "CCc1c(CN2CCN(c3cccc(C)c3C)CC2)csc1C", "activity change, negative = inhibition": "inactive: 6.32%"},
      {"compound": "Fc1ccc(CNc2ncnc3onc(-c4ccc(F)cc4)c23)cc1", "activity change, negative = inhibition": "inactive: 42.4%"},
      {"compound": "CCc1cccc(C)c1Nc1c(-c2ccccc2)nc2sccn12", "activity change, negative = inhibition": "inactive: -2.59%"},
      {"compound": "CCN(CC)S(=O)(=O)c1nnc(NC(=O)COc2ccccc2F)s1", "outcome": "inactive"},
      {"compound": "CCOc1ccc(CNC(=O)CSc2cc(=O)n(CC)c3ccccc23)cc1", "activity change, negative = inhibition": "inactive: -34.8%"},
      {"compound": "Nc1c(C(=O)Nc2ccc(OC(F)(F)F)cc2)nnn1Cc1ccccc1", "activity change, negative = inhibition": "inactive: -3.64%"},
      {"compound": "Cn1c(=O)c2c(nc(SCC(=O)Nc3ccccc3)n2Cc2ccccc2F)n(C)c1=O", "activity change, negative = inhibition": "inactive: 6.85%"},
      {"compound": "COCCCn1c(=N)c(C(=O)NCc2ccco2)cc2c(=O)n3ccccc3nc21", "outcome": "inactive"},
      {"compound": "CCCNC(=O)C1CCC(Cn2c(=O)c3sccc3n(Cc3ccccc3F)c2=O)CC1", "note": "(stereo not drawn)", "activity change, negative = inhibition": "inactive: 11.4%"},
      {"compound": "Cc1cccc(C)c1NC(=O)NCCc1c[nH]c2ccccc12", "activity change, negative = inhibition": "inactive: -0.943%"},
      {"compound": "Cc1ccc(-n2c3nc(=O)[nH]c(=O)c-3cc3c(C)nn(-c4ccccc4)c32)cc1Cl", "outcome": "inactive"},
      {"compound": "Cc1ccc2c(c1)-c1onc(C(=O)N3CCN(c4ccc(Cl)cc4)CC3)c1CO2", "activity change, negative = inhibition": "inactive: 4.51%"},
      {"compound": "O=C(NC1CCCCC1)c1ccc(Cn2c(SCc3ccc(F)cc3)nc3cccnc32)cc1", "activity change, negative = inhibition": "inactive: -3.01%"},
      {"compound": "CCCCN(CC)C(=O)CSc1nc2n[nH]c(C)c2c(=N)n1-c1cccc(OC)c1", "activity change, negative = inhibition": "inactive: -1.25%"},
      {"compound": "COc1cccc(N2CCN(c3ncnc4c3nc3n4CCCCC3)CC2)c1", "activity change, negative = inhibition": "inactive: 9.89%"},
      {"compound": "O=S(=O)(c1ccccc1)c1nnn2c1nc(NCc1ccc(F)cc1)c1sccc12", "activity change, negative = inhibition": "inactive: -13.2%"},
      {"compound": "Brc1ccc(-c2nc3ccccn3c2Nc2ccc3c(c2)OCCO3)o1", "activity change, negative = inhibition": "inactive: -35.8%"},
      {"compound": "COc1ccccc1CNC(=O)CCn1nc(C)c2c(C)n(-c3ccccc3)nc2c1=O", "activity change, negative = inhibition": "inactive: 0.555%"},
      {"compound": "COc1ccc(OCC(=O)NC2CC(=O)N(c3cccc(OC)c3)C2)cc1", "note": "(stereo not drawn)", "activity change, negative = inhibition": "inactive: 11.6%"},
      {"compound": "Cc1cccc(N(C)C(=O)CCS(=O)(=O)c2ccc3c(c2)oc(=O)n3C)c1", "activity change, negative = inhibition": "inactive: -0.449%"},
      {"compound": "C=Cc1ccc(Cn2c(C(=O)O)c(CNC3CCCC3)c3ccc(C)cc32)cc1", "activity change, negative = inhibition": "inactive: 0.323%"}
    ]}
  ]
}
